# Over roughly 16,000 sequences, “Z-score” has its median near -0.37; the highest 2% begin near 3.2. Some of the results follow.
# Test system: RBM10 RRM1-ZnF (GST-tagged construct)
# Assay: RNAcompete 7-mer binding Z-score; higher = stronger binding preference
# How it was run: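 GST-tagged RBM10 constructs (20 pmol) were mixed with a designed pool of 241 399 RNAs up to 41 nt (1.5 nmol), transcribed from microarray-derived DNA templates. Mixing was in 1 ml Hepes pH 7.8 buffer with KCl, NaCl, glycerol, DTT, BSA and glutathione Sepharose beads. Binding ran 30 min at 4°C, followed by four 2-min washes at 4°C, and bound RNA was identified by microarray hybridisation. Each heptamer motif received a one-sided Z-score for enrichment across probes containing it.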
row,Sequence,RNAcompete 7-mer binding Z-score
1,AACGUAU,-0.321
2,AUUAGAC,-0.464
3,GGGGCGA,2.46
4,UUAGCAG,0.00729
5,CAAGAAC,-0.5
6,GUUAGCC,-0.415
7,AGUAUUU,-0.545
8,GGUGAUC,1.15
9,CCGGCAC,-0.409
10,GAUAAAU,-0.0707
11,GGUCCCA,-0.311
12,ACCAACC,-0.74
13,GUGGCGA,1.42
14,AAAAAGG,2
15,GAAAAUU,-0.0674
16,CGACCGG,0.267
17,UAAAUAC,-0.409
18,AGUGCAG,0.576
19,CCCUGCU,-0.74
20,GGUCAUG,0.92
21,GAGAACG,0.943
22,UUGUGCG,-0.155
23,CAGGUUG,2.04

row,Sequence,RNAcompete 7-mer binding Z-score
1,UAUCAUU,-0.646
2,AUAGCGU,0.0268
3,CACAAAG,-0.34
4,ACCACCA,-0.503
5,CAGGCCA,0.00404
6,AUAAAGG,1.64
7,AAAGCAC,-0.418
8,UUUGCCU,-0.821
9,GGGCUAG,1.74
10,GGAACCC,-0.0707
11,AAAGCUA,-0.103
12,CAAGGUG,1.76
13,GCAGCGC,-0.178
14,CGGAUGC,0.68
15,UCUAAAA,-0.591
16,AAGUUCU,-0.659
17,ACCAUUG,-0.662
18,UCCGCCU,-0.698
19,CAAGAUC,-0.6
20,ACCGUAA,-0.802
21,ACGCUAG,-0.402
22,GGAAUUU,0.407
23,GCUUCAG,-0.425

row,Sequence,RNAcompete 7-mer binding Z-score
1,AACUCGU,-0.789
2,UUAUUCC,-0.876
3,CAUAUGG,0.296
4,GAAGUUA,0.309
5,UCUCUCU,-0.733
6,AACCUCA,-0.659
7,CUCCGAC,-0.649
8,CUAGUAC,-0.578
9,UUGUAGA,-0.0447
10,GCACGUA,-0.0707
11,CUGCCUG,-0.659
12,GUUUCUC,-0.483
13,CUCUGAU,-0.805
14,UCGUGUG,-0.0577
15,GUUGGAU,1.67
16,GUUACUG,-0.152
17,GCCCAGC,-0.409
18,CGUAAUU,-0.509
19,AGACACU,-0.815
20,GGUAAGA,2.19
21,GUGGCAA,1.03
22,UCGUUGG,0.553
23,GGACCUG,-0.145

row,Sequence,RNAcompete 7-mer binding Z-score
1,GAACCAA,-0.451
2,UACAUGC,-0.467
3,CCUCUAG,-0.694
4,CUAGAUU,-0.678
5,GCAUGAG,0.612
6,CUGUAUG,-0.301
7,CCCACAG,-0.47
8,AUUUCCC,-0.925
9,GUCCCUA,-0.587
10,CUCCUCG,-0.568
11,GUCCUUU,-0.759
12,UAUAAUG,0.118
13,UAUAUGG,1.03
14,AGGGUUC,0.985
15,GCGUCGC,-0.113
16,AAAAUAA,-0.428
17,CCCUCAG,-0.568
18,UUAUGUU,-0.542
19,AGCGAGA,0.686
20,CGGGUAC,1.17
21,UGAGUGA,0.956
22,CACCACA,-0.496
23,CGGAAUC,0.0235

row,Sequence,RNAcompete 7-mer binding Z-score
1,UCUAGGA,0.144
2,ACGUAAC,-0.454
3,UUGAAAA,-0.386
4,GCCGUGU,-0.383
5,GACAAAA,-0.11
6,GUUACGU,-0.0837
7,UCUCUAU,-0.743
8,CCGCCAA,-0.604
9,ACGGCAA,0.192
10,UGUACAC,-0.24
11,UUACACG,-0.604
12,UUCCCCU,-0.558
13,AAUCUGA,-0.704
14,GGAGCAG,2.11
15,GGUGCUU,0.501
16,UUUAGCG,-0.467
17,GGCCAAA,-0.418
18,GCUGCAU,-0.201
19,CAGCUCU,-0.681
20,AUCAGUC,-0.454
21,UGACCGU,-0.568
22,UAUACUG,-0.513
23,GGCUCAG,0.261

row,Sequence,RNAcompete 7-mer binding Z-score
1,AUGCGAC,-0.123
2,GCUUCGG,-0.168
3,CACAAUA,-0.714
4,GUCACUC,-0.519
5,CAAGUAA,-0.275
6,ACUAUGU,-0.412
7,GGGCAGA,2.45
8,CACUUGC,-0.668
9,GGCACCA,-0.116
10,CGCUUCU,-0.902
11,GGAUGAG,3.4
12,UGUAGAC,0.0235
13,CAUUUAU,-0.808
14,GGCGCUA,0.192
15,UGCACAU,-0.431
16,ACGUAAA,-0.0934
17,AAGCGAU,0.309
18,GCAAAAC,-0.0902
19,GGAGAGA,1.46
20,CUCCCAC,-0.545
21,UUGAUGG,1.35
22,AUAGAGC,0.16
23,CAGUUCA,-0.607

row,Sequence,RNAcompete 7-mer binding Z-score
1,GCGCAAA,-0.181
2,UCACCGU,-0.759
3,AGGGUGA,4.19
4,UAACGCC,-0.789
5,UUUAGUC,-0.704
6,GUUCUCG,-0.678
7,CGACGCA,-0.36
8,UGUUCGA,-0.581
9,GAAUUCA,-0.415
10,UAGGGAC,1.79
11,AGCGCGC,-0.347
12,GGCUUGG,1.54
13,AGCGGGA,3.31
14,GUCAUGG,1.11
15,UAGGAAA,1.47
16,GUUAGCA,0.173
17,CCAACGA,-0.431
18,UGUAUGC,-0.158
19,UUUUGUA,-0.694
20,GGGGUUC,1.79
21,UCUUCAG,-0.675
22,GGGUAUU,2.23
23,UAACGAG,-0.00571

row,Sequence,RNAcompete 7-mer binding Z-score
1,AGGGACC,0.54
2,CUGACGC,-0.652
3,UCUAAAG,-0.578
4,CCAUCGG,-0.578
5,GCUAGGG,2.5
6,UUGAGGC,0.115
7,GAUAUUC,-0.503
8,UUGCGCC,-0.509
9,CCAGCUG,-0.422
10,CCCGCAA,-0.685
11,AACGUUA,-0.347
12,GCCCCGC,-0.158
13,UUCAGGC,-0.431
14,UCGUCAA,-0.594
15,ACGAGGA,1.33
16,CCUAUCU,-0.873
17,CCCGGAU,-0.399
18,CUUCUGG,-0.717
19,UCAUAAG,-0.672
20,ACGACAG,0.186
21,GGCCCAA,-0.379
22,GCCGGUC,-0.425
23,CUAGUUC,-0.876

# Reference: the supplement of paper PMC5499739
